This is one part of the list.

The labels stand for the following.
T1: UNK ZnF1-6 (called full-length) (human, UniProt Q9C0B0 30-357)
T1 sequence: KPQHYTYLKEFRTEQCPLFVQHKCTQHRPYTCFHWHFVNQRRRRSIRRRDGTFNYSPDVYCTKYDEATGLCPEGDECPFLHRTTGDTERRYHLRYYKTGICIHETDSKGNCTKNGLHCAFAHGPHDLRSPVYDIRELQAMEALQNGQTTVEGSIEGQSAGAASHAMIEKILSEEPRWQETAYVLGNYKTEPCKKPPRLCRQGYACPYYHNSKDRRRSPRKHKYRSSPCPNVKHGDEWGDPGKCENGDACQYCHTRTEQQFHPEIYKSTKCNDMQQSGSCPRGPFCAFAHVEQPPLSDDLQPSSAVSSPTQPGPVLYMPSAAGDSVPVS

B1: chr17:46339502:46339774:-|CDS|ENSG00000228696|control|control|control (ssRNA)
RNA: GGGAGUUCUACAGUCCGACGAUCUGUAGUCACGUGGAAUUUGGAAUGUGGAAAGGAGGUAGAAGUCAUCCUUUCCUCCCCCAUAGCAGCAGGUGUGCAGGCUCUGGUGGUCAGCUGGACUCCAUACUCCCCCACCAGUCACCACAACAGAGGAUUGAGCAUCA
B2: ENSG00000198589:be:win_6251|CDS|ENSG00000198589|bound_else_gene|NA|bound_elsewhere_windowed (ssRNA)
RNA: GGGAGUUCUACAGUCCGACGAUCGCACUCUUUCUGUCACCUCCUCCGAACUCUAUUUUGAGGUGGAUGAAGAGGAUCCUAACUUCAAAAAAAUCGACCCCAAGAUCUUGGCAUAUACAGAAGGGCUGCAUGGAAAAUGGCUGUCAACAGAGGAUUGAGCAUCA
B3: chr5:141516432:141516515:-|3pUTR|ENSG00000131504|msi1_unk|total|mutant (ssRNA)
RNA: GGGAGUUCUACAGUCCGACGAUCCUCAGACAAGGCCCAGCCUGCUUUUUCUCAGCCCUGACUUUCUAAUGGGCUUUCCCCCCCCGGUCAGUCUUGCUGGAUUUGUGCUUUUCUUUUGUGGUUUCUCUGGCCCUGAGAACCGCACAACAGAGGAUUGAGCAUCA
B4: chr11:13729208:13729309:+|3pUTR|ENSG00000197601|unk|FALSE|unique (ssRNA)
RNA: GGGAGUUCUACAGUCCGACGAUCAAAGUUGGUAGAUAUUUGAUUCUUCAUUUUUUGUUUUUUUCAUUAGUUGAAGUGGGUUUUAGUUUUGUUUAAAAUUAUAACCAGCGUAUUUUCACAUCAUUCUGUAAGUUAAAUGAUAUCCAACAGAGGAUUGAGCAUCA
B5: chr6:53267885:53267986:-|3pUTR|ENSG00000012660|msi1_unk|total|mutant (ssRNA)
RNA: GGGAGUUCUACAGUCCGACGAUCUUUAAUGUAAAUCUAACCGUACUUGUAAUUUCUUUCUGCUCCGAAUCUAAAGAUGUGUUCCGAACCUCUUGUUUAAAAAUAACCGACUGCUUAUCAUAAAAUCACAUCUCACACAUUUGACAACAGAGGAUUGAGCAUCA
B6: chr2:135724104:135724205:+|CDS|ENSG00000048991|msi1|total|mutant (ssRNA)
RNA: GGGAGUUCUACAGUCCGACGAUCCAACACUGCCAACCCUGAACGCUCUAAACCCAGUGACUUGGCCUCCACCUACACCGUCUCCGCCACAUUCCCCUCCAUUUCAGCUGCACAGAAUGCACUGAAGAAACAAAUUAACUCAGUCAACAGAGGAUUGAGCAUCA
B7: chr2:96375651:96375752:+|3pUTR|ENSG00000121152|unk|FALSE|unique (ssRNA)
RNA: GGGAGUUCUACAGUCCGACGAUCAUUGACUAAGACAGUGGGUAUGCAAGAUAAGUUUAUUUUAUAUAAAAUACUUUGGGAAGUAGGUGUUCUAGGACUGGUGUGACAGUUCCAUGAAAUUAUGAGAGACCGGGGAUCCUUCCACAACAGAGGAUUGAGCAUCA
B8: chr16:68260521:68260622:+|3pUTR|ENSG00000103066|msi1|total|mutant (ssRNA)
RNA: GGGAGUUCUACAGUCCGACGAUCUCGCAGCUUCCCUGAGCUGCACCUCUUGCUAACCCCACCAUCACACUGCCACCCUGCCCCCGGGUCUCACCCGUACCAAGUGGGUCAGCACAGGGCUGAGGAUGGGGCUCCUAUCCACCCCAACAGAGGAUUGAGCAUCA
B9: ENSG00000159459:stop:overlap|stop_codon|ENSG00000159459|stop_codon|NA|stop_codon (ssRNA)
RNA: GGGAGUUCUACAGUCCGACGAUCUCCGCUCACUGACCUCUCCCUCUCUGACUCAAGCAAUUCUCCCACCUCAGCCUCCCGAAUAGCUGGGACCACAGUGGUGGGAUCAGCAAGUUGAUUUUUAUACUGCUUUCUUGCAUCAUUCAACAGAGGAUUGAGCAUCA
B10: chr8:97851540:97851652:+|3pUTR|ENSG00000104341|msi1_unk|FALSE|overlapping (ssRNA)
RNA: GGGAGUUCUACAGUCCGACGAUCCACUUUUGCCAUGAGCCUCUCUGAGCUUGUUUGUUGCUGAAAUGCUACUUUUUAAAAUUUAGAUGUUAGAUUGAAAACUGUAGUUUUCAACAUAUGCUUUGCUGGAACACUGUGAUAGAUCAACAGAGGAUUGAGCAUCA
B11: chr14:102729990:102730091:+|3pUTR|ENSG00000089902|msi1|FALSE|unique (ssRNA)
RNA: GGGAGUUCUACAGUCCGACGAUCUGCGAUGCUCUUUCUGCCAGUCCCUGAAUCUCUGCAGCUUCUCUUACCUGUCUUACCUGUAGUAAAGCACAAUUGCAGUGGCGUCGCAUUCAGAAGAAGGGAAGGUCAGCAGAGGCUAUGCAACAGAGGAUUGAGCAUCA
B12: ENSG00000198589:be:win_3901|CDS|ENSG00000198589|bound_else_gene|NA|bound_elsewhere_windowed (ssRNA)
RNA: GGGAGUUCUACAGUCCGACGAUCUCUACUGUGUUUCGUAUUCCUGAGUUCAACUGGUCUCAGAUGCAUCAACGUUUGCUCACUGAUCUAUUAUUUUCAAUAGAAACAGAUAUACAGAUGUGGAGAAGCCAUUCAACAAAGACACAACAGAGGAUUGAGCAUCA
B13: chr18:58535911:58536012:-|CDS|ENSG00000198796|msi1|total|mutant (ssRNA)
RNA: GGGAGUUCUACAGUCCGACGAUCUCUGACCUGCCCUAAAAUCCCCGAGUCCUCUGCCGAUCCCAUUGAUGAGAUAAGUGUGACCGAGUACACCAGGGCUGGAAAACCAGAGCCCUCUGAAACCACACCACAGGGCGCCAGAGACAACAGAGGAUUGAGCAUCA
B14: chr7:116918052:116918157:+|3pUTR|ENSG00000198898|unk|total|mutant (ssRNA)
RNA: GGGAGUUCUACAGUCCGACGAUCUUUUCAUUUUGUUUGUUCUAAGAGGAUUGAAAAUCAGUUCCGUUUAAAUGUCUUUCUGUCCGGCCUUUCUUUCUUACAAUGAAGAGAUGAUUCUUCCCGUUUAUGGUUAAAAGUUUUUGACAACAGAGGAUUGAGCAUCA

For the assay, the target named is T1, UNK ZnF1-6 (called full-length). The assay can be described thus: nsRBNS (natural sequence RNA bind-n-seq); RBNS binding buffer (assumed for nsRBNS): 25 mM Tris pH 7.5, 150 mM KCl, 3 mM MgCl2, 0.01% Triton X-100, 500 ug/ml BSA, 20 U/ml SUPERase-In, 4 C; UNK is unkempt and MSI1 is Musashi-1; names of the RNAs are library labels; protein concentration not given here; high values mean tight binding.
For the molecule B1, the binding signal amounted to 0.972 enrichment R.

Molecule B2 returned a binding signal of 0.599 enrichment R. In the case of B3 it was 0.574 enrichment R; in that of B4, 1.5 enrichment R; in that of B5, 0.478 enrichment R. The figure for B6 is 0.85 enrichment R; for B7 it is 0.838 enrichment R. In the case of B8, the binding signal is 0.803 enrichment R. B9: the binding signal worked out at 0.706 enrichment R. In the case of B10 it was 0.568 enrichment R; in that of B11, 0.535 enrichment R; in that of B12, 0.382 enrichment R. In the case of B13 it was 0.72 enrichment R; in that of B14, 0.615 enrichment R.
